Experimental data: patent publication US20250243260A1 (ALPINE IMMUNE SCIENCES, published 2025)
Numbering of substitutions follows the chain as printed. Names and notes keep the numbering of the source. Each block holds one binder with its values, some of them ahead of it.

Legend:
[1] = biological target: CD28 on Jurkat/IL2-reporter cells (UniProt P10747 19-220, limits assumed); assay: cell-based or functional assay
[2] = biological target: T1, human CTLA-4 (human, UniProt P16410 36-223); assay: flow cytometry on CHO/CTLA-4 cells
T1 construct: whole, on cells; also called CHO/CTLA-4 cells
Description: Binding affinity to CD28 was determined using primary human T cells which endogenously express CD28. Binding to PD-L1 was determined using SCC152 cells transduced with human PD-L1. Binding to CTLA-4 was measured using Chinese hamster ovary (CHO) cells stably transduced to express human CTLA-4.
For staining and analysis by flow cytometry, 75,000 human T cells, SCC152/PD-L1 cells, or CHO/CTLA-4 cells were plated in 96-well round-bottom plates. Cells were spun down and resuspended in staining buffer (PBS (phosphate buffered saline), 1% BSA (bovine serum albumin), 1 mM EDTA, and 0.1% sodium azide) for 20 minutes to block non-specific binding. Afterwards, cells were centrifuged, stain buffer aspirated, and then resuspended in 50 μL of a 1:5 serial dilution of each CD80-Fc candidate variant starting at 100 nM ending at 0.8 nM. Primary staining was performed on ice for 60 minutes, before washing cells in […] staining buffer three times. PE-conjugated anti-human Fc (Jackson ImmunoResearch, USA) was diluted 1:250 in 50 μL staining buffer and added to cells and incubated another 30 minutes at 4° C. Cells were washed two times in 150 μL stain buffer and then fixed in 2% formaldehyde/PBS for 5 minutes at room temperature. Samples were analyzed CytoFLEX LX flow cytometer (Beckman Coulter, USA). Median Fluorescence Intensity (MFI) was calculated for each cell type using the CytExpert software from Beckman Coulter.

T1 sequence (P16410 36-223): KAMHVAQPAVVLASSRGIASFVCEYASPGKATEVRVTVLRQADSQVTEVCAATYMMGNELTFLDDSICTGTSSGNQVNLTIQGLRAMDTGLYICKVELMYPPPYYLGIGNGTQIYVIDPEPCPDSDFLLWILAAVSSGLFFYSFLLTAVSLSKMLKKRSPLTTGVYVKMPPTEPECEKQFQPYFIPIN

Fold Increase over WT at 50 nM [1]: 2.53 fold | Rel. Luminescence Units (RLU) 2 nM [1]: 2980 RLU | Rel. Luminescence Units (RLU) 10 nM [1]: 3900 RLU | Rel. Luminescence Units (RLU) 50 nM [1]: 6180 RLU | Rel. Luminescence Units (RLU) 250 nM [1]: 10400 RLU
B1: CD80_170 variant CD80 IgV-Fc (K9N, E10G, E35G, D46E, M47V, V68M) (Fc fusion)
chain: VIHVTKEVNGVATLSCGHNVSVEELAQTRIYWQKGKKMVLTMMSGEVNIWPEYKNRTIFDITNNLSIMILALRPSDEGTYECVVLKYEKDAFKREHLAEVTLSVKADGSGGGGS[omitted - human IgG4 Fc with S228P (EU numbers)]

MFI at 0.8 nM [2]: 343000 MFI | MFI at 4 nM [2]: 521000 MFI | MFI at 20 nM [2]: 555000 MFI | MFI at 100 nM [2]: 547000 MFI | fold change vs WT CD80 at 20 nM [2]: 0.67 fold
B2: CD80_185 variant CD80 IgV-Fc (V11Y, T28Y, M47L) (Fc fusion)
chain: B1 chain with N9K, G10E, V11Y, T28Y, G35E, E46D, V47L, M68V
notes: also called CD80_185-Fc

Fold Increase over WT at 50 nM [1]: 1.7 fold | Rel. Luminescence Units (RLU) 2 nM [1]: 2080 RLU | Rel. Luminescence Units (RLU) 10 nM [1]: 2350 RLU | Rel. Luminescence Units (RLU) 50 nM [1]: 4140 RLU | Rel. Luminescence Units (RLU) 250 nM [1]: 8550 RLU
B3: CD80_239 variant CD80 IgV-Fc (V11Y, T28Y, D46E, M47V) (Fc fusion)
chain: B1 chain with N9K, G10E, V11Y, T28Y, G35E, M68V

Fold Increase over WT at 50 nM [1]: 3.35 fold | Rel. Luminescence Units (RLU) 2 nM [1]: 3890 RLU | Rel. Luminescence Units (RLU) 10 nM [1]: 5400 RLU | Rel. Luminescence Units (RLU) 50 nM [1]: 8170 RLU | Rel. Luminescence Units (RLU) 250 nM [1]: 13100 RLU
B4: CD80_169 variant CD80 IgV-Fc (E10G, E35G, D46E, M47V, V68M) (Fc fusion)
chain: B1 chain with N9K

Fold Increase over WT at 50 nM [1]: 2.38 fold | Rel. Luminescence Units (RLU) 2 nM [1]: 3110 RLU | Rel. Luminescence Units (RLU) 10 nM [1]: 4230 RLU | Rel. Luminescence Units (RLU) 50 nM [1]: 5820 RLU | Rel. Luminescence Units (RLU) 250 nM [1]: 8850 RLU
B5: CD80_242 variant CD80 IgV-Fc (V11F, T28Y, M47L, T62S) (Fc fusion)
chain: B1 chain with N9K, G10E, V11F, T28Y, G35E, E46D, V47L, T62S, M68V

Fold Increase over WT at 50 nM [1]: 1.23 fold | Rel. Luminescence Units (RLU) 2 nM [1]: 3480 RLU | Rel. Luminescence Units (RLU) 10 nM [1]: 3000 RLU | Rel. Luminescence Units (RLU) 50 nM [1]: 3000 RLU | Rel. Luminescence Units (RLU) 250 nM [1]: 2760 RLU
B6: CD80_178 variant CD80 IgV-Fc (V11Y, T28Y, L85E, Y87I) (Fc fusion)
chain: B1 chain with N9K, G10E, V11Y, T28Y, G35E, E46D, V47M, M68V, L85E, Y87I

Fold Increase over WT at 50 nM [1]: 4.74 fold | Rel. Luminescence Units (RLU) 2 nM [1]: 9610 RLU | Rel. Luminescence Units (RLU) 10 nM [1]: 10100 RLU | Rel. Luminescence Units (RLU) 50 nM [1]: 11600 RLU | Rel. Luminescence Units (RLU) 250 nM [1]: 12900 RLU
B7: CD80_233 variant CD80 IgV-Fc (V11Y, T28Y, M47L, V68M) (Fc fusion)
chain: B1 chain with N9K, G10E, V11Y, T28Y, G35E, E46D, V47L

Fold Increase over WT at 50 nM [1]: 4.02 fold | Rel. Luminescence Units (RLU) 2 nM [1]: 2840 RLU | Rel. Luminescence Units (RLU) 10 nM [1]: 4220 RLU | Rel. Luminescence Units (RLU) 50 nM [1]: 9820 RLU | Rel. Luminescence Units (RLU) 250 nM [1]: 13100 RLU
B8: CD80_238 variant CD80 IgV-Fc (V11Y, D46E, M47V, V68M) (Fc fusion)
chain: B1 chain with N9K, G10E, V11Y, G35E

Fold Increase over WT at 50 nM [1]: 1.32 fold | Rel. Luminescence Units (RLU) 2 nM [1]: 2720 RLU | Rel. Luminescence Units (RLU) 10 nM [1]: 2940 RLU | Rel. Luminescence Units (RLU) 50 nM [1]: 3230 RLU | Rel. Luminescence Units (RLU) 250 nM [1]: 4840 RLU
B9: CD80_176 variant CD80 IgV-Fc (E10R, H18Y, A26G, E35D, V68L, L85E) (Fc fusion)
chain: B1 chain with N9K, G10R, H18Y, A26G, G35D, E46D, V47M, M68L, L85E

Fold Increase over WT at 50 nM [1]: 3.09 fold | Rel. Luminescence Units (RLU) 2 nM [1]: 2320 RLU | Rel. Luminescence Units (RLU) 10 nM [1]: 3000 RLU | Rel. Luminescence Units (RLU) 50 nM [1]: 7540 RLU | Rel. Luminescence Units (RLU) 250 nM [1]: 11500 RLU
B10: CD80_244 variant CD80 IgV-Fc (V11Y, T28Y, M47L, Y87R) (Fc fusion)
chain: B1 chain with N9K, G10E, V11Y, T28Y, G35E, E46D, V47L, M68V, Y87R

Fold Increase over WT at 50 nM [1]: 1.7 fold | Rel. Luminescence Units (RLU) 2 nM [1]: 2710 RLU | Rel. Luminescence Units (RLU) 10 nM [1]: 3100 RLU | Rel. Luminescence Units (RLU) 50 nM [1]: 4160 RLU | Rel. Luminescence Units (RLU) 250 nM [1]: 5960 RLU
B11: CD80_232 variant CD80 IgV-Fc (V11F, T28Y, M47L) (Fc fusion)
chain: B1 chain with N9K, G10E, V11F, T28Y, G35E, E46D, V47L, M68V

Fold Increase over WT at 50 nM [1]: 3.5 fold | Rel. Luminescence Units (RLU) 2 nM [1]: 3380 RLU | Rel. Luminescence Units (RLU) 10 nM [1]: 4010 RLU | Rel. Luminescence Units (RLU) 50 nM [1]: 8540 RLU | Rel. Luminescence Units (RLU) 250 nM [1]: 12600 RLU
B12: CD80_235 variant CD80 IgV-Fc (V11Y, M47L, A71G) (Fc fusion)
chain: B1 chain with N9K, G10E, V11Y, G35E, E46D, V47L, M68V, A71G

Fold Increase over WT at 50 nM [1]: 0.99 fold | Rel. Luminescence Units (RLU) 2 nM [1]: 2100 RLU | Rel. Luminescence Units (RLU) 10 nM [1]: 2370 RLU | Rel. Luminescence Units (RLU) 50 nM [1]: 2410 RLU | Rel. Luminescence Units (RLU) 250 nM [1]: 3280 RLU
B13: CD80_171 variant CD80 IgV-Fc (E7S, H18I, V20L, A26K, M47L, A71N) (Fc fusion)
chain: VIHVTKSVKEVATLSCGINLSVEELKQTRIYWQKEKKMVLTMMSGDLNIWPEYKNRTIFDITNNLSIVILNLRPSDEGTYECVVLKYEKDAFKREHLAEVTLSVKADGSGGGGS[omitted - human IgG4 Fc with S228P (EU numbers)]
